Experimental data: the RNAGym collection of RNA variant scans (doi:10.7554/elife.90254)
Read counts are not given, so values of variants with three or more changes are uncertain.

B1: LINE1-mini (parent)
chain: GGCAGAGCUCAACACAGCGUGGCAAAGUGGCUGUGGCUAGACUGCC

Variants of: B1
Test: self-cleavage, relative activity (ratio to wild type); higher = more cleavage; in vitro, sequencing; the parent is a self-cleaving ribozyme

Row | Variant | self-cleavage
1 | GGCAGAACUUAACACAGCGUGGCAUAAUGGCUGUGGCUAGACUUGC [G7A C10U A25U G27A G44U C45G] | 0.02
2 | GGCAGAACUCAAAACAGCGUGGCAAAGUGGCUGUGGCUAGACCACC [G7A C13A U43C G44A] | 0.07
3 | GGCAGAACUAAACACAGCGUGGCAAAGUGGCUAUGGCUAGACUGCC [G7A C10A G33A] | 0.05
4 | GGCAGAACUCAAUACAGCGUGGCGAAGUGGCUGUGGCUAGACUGCC [G7A C13U A24G] | 0.27
5 | GGCAGAACUUAACACAGCGUGGCAAAGUGGCUGUGGCCAGACUGCC [G7A C10U U38C] | 0.01
6 | GGCAGAACUCAAGACAGCGUGGCAAAGUGGCUGUGGCUAGAAUGCC [G7A C13G C42A] | 0.2
7 | GGCAGAACUUAACACGGGGUGGCAAAGUGGCUGUGGCUAGACUGCC [G7A C10U A16G C18G] | 0.01
8 | GGCAGAACUCAAGACAGCGUGGCAAAGUGGCUGUGGCUAGAUUACC [G7A C13G C42U G44A] | 0.35
9 | GGCAGAAUUCAACACAGCGUGGCAAAGUGACUGUGGCUAGACUGCC [G7A C8U G30A] | 0.46
10 | GGCAGAACUCAAUACAGCGUGCCAUAGUGACUGUGGCUAGACUGCU [G7A C13U G22C A25U G30A C46U] | 0.06
11 | GGCAGAACUCAAUACAGCGUUGCAAAGUGGCUGUGGCUAGACUGCC [G7A C13U G21U] | 0.08
12 | GGCAGAACUUAACACAGCGUGGCAGAGUGGCUGUGGCUAGACUGCC [G7A C10U A25G] | 0.01
13 | GGCAGAACUGAACACAGCGUGGCAAAGUGGCUGUGGUUUGACUGCC [G7A C10G C37U A39U] | 0.01
14 | GGCAGAACUAAACACAGCGUGGCAAAGUGGCUAUGGCUAGUCUGCC [G7A C10A G33A A41U] | 0.02
15 | GGCAGAAUUCAACACAGCGUGUCAAAGUGGCUUUGGCUAGACUGCC [G7A C8U G22U G33U] | 0.46
16 | GGCAGAACUCAAGGCAGCGUGGCAAAGUGGCUGUGUCUAGACUUCC [G7A C13G A14G G36U G44U] | 0.02
17 | GGCAGAACUUAACACAGCGUGCCCAAGUGGCUGUGGCUAGACUGCC [G7A C10U G22C A24C] | 0.01
18 | GGCAGAACUUAACACAGCGUGGCAAAGUGGCUGUGGCUAGACGGCC [G7A C10U U43G] | 0.15
19 | GGCAGAACUCAAUAUAGCGUGGCAAAGUGGCUGUGGCUAGACUGCC [G7A C13U C15U] | 0.19

Row | Variant | self-cleavage
20 | GGCAGAACUCAAUACAGCGUGGCAAAGUGGCUGUGGCUAGUCUGCC [G7A C13U A41U] | 0.12
21 | GGCAGAACUUUACACAACGUGGCAAAGUGGCUGUGGCUAGACUGCC [G7A C10U A11U G17A] | 0.04
22 | GGCAGAACUUAACACAGUGUGGCAAAGUGGCUGUGGCUUGACUGCC [G7A C10U C18U A39U] | 0.04
23 | GGCAGAACUCAAUACCGCGUGGCAAAGUGGCUGUGGCUAGACCGCC [G7A C13U A16C U43C] | 0.73
24 | GGCAGAACUCAAUACAGCUUGGCAAAGUGGCUGUUGCUAGACUGCC [G7A C13U G19U G35U] | 0.07
25 | GGCAGAACUGAACACAGGAUGGCAGAUUGUCUGUGACUAGACUGCC [G7A C10G C18G G19A A25G G27U G30U G36A] | 0.01
26 | GGCAGAAUUCAACACAGCGUGGCAAAGCAGCUGCGGCUAGAUUGCC [G7A C8U U28C G29A U34C C42U] | 0.3
27 | GGCAGAACUCAAUACAGCGUGGCAAAGUGGUUGUGGCUAGACUGCC [G7A C13U C31U] | 0.25
28 | GGCAGAACUUAACACAGCGUGGCGAAGGGGCUGUGGCUAGACUGCC [G7A C10U A24G U28G] | 0.02
29 | GGCAGAAUUCAACACAGCGUGGCAAAUUGGCUGUGUCCAGACUGCC [G7A C8U G27U G36U U38C] | 0.06
30 | GGCAGAACUAAACUCAGCGUAGCAAAGUAGCUCUGGCUAGACGGCC [G7A C10A A14U G21A G29A G33C U43G] | 0.04
31 | GGCAGAAUGCAACACAGCGUGGCAAAGUGGCUGUGGCUAGACUGCC [G7A C8U U9G] | 0.53
32 | GGCAGAACUGAACACAUCGUGGAAAAGUGGCUGUGGCUAGACAGCC [G7A C10G G17U C23A U43A] | 0.04
33 | GGCAGAACUCAAAACAGCGUGGCAAAGUGGCAUUGGCUAGACCGCU [G7A C13A U32A G33U U43C C46U] | 0.12
34 | GGCAGAACUCAAAACAGCGUGGCAAAUUGGCUGUUGCUAGACUGCC [G7A C13A G27U G35U] | 0.1
35 | GGCAGAACUCAAAACAGCGUGGCAAAGAGGAUGUGGCUAGACGGCC [G7A C13A U28A C31A U43G] | 0.02
36 | GGCAGAACUCAAUACAGCGUGGCAAAGUGGCUGUGGCUAGACUGCA [G7A C13U C46A] | 0.2
37 | GGCAGAACUUAACACAACGUGGCAAAGUGGCUGUGGCUAGACUGCC [G7A C10U G17A] | 0
38 | GGCAGAACUAAACACAGCGUGGCAAAGUGGCUGUGGCUAGACUGAC [G7A C10A C45A] | 0.01

Row | Variant | self-cleavage
39 | GGCAGAACUCAAGACAUCUUGUCAAAGUGGCUGUGGCUAGACUGCC [G7A C13G G17U G19U G22U] | 0.27
40 | GGCAGAACUAAACACAGCGUGGCAAAGUGGCUGUGACUAGACUGCC [G7A C10A G36A] | 0.02
41 | GGCAGAACUGAACACGGUGUGGCAAAGUGGCUGUGGCUAGACUGCC [G7A C10G A16G C18U] | 0.02
42 | GGCAGAACUUAAGACAGCGUGGCAAAGUAGCUGUGGCUAGACUGCC [G7A C10U C13G G29A] | 0.13
43 | GGCAGAACUCAAUACAGCGUGGCAAAGUGACUGUGGCUAGACUGCC [G7A C13U G30A] | 0.01
44 | GGCAGAACUAAACACAGCGUGGCAAAGUGGCCGCUGCUAGACUGCC [G7A C10A U32C U34C G35U] | 0.01
45 | GGCAGAACUUAGCACAGCGUGGGAAAGUGGCUGUGGCUAGACUGCC [G7A C10U A12G C23G] | 0
46 | GGCAGAACUCAAAACAGCGUGGCAAAAUGGCUUUGGCUAGACUGCA [G7A C13A G27A G33U C46A] | 0.17
47 | GGCAGAAUUCAACACAGCGUGGCAAAGUGGCUGUCGCUAGACUGCC [G7A C8U G35C] | 0.04
48 | GGCAGAACUAAACAGAGCCUGGCAGAGUGGCUGUGGCUAGACUGCC [G7A C10A C15G G19C A25G] | 0.02
49 | GGCAGAACUUAACACAGGGUGGCAAAGUGGCCGAGGCUAGACUGCC [G7A C10U C18G U32C U34A] | 0.05
50 | GGCAGAACUAAACACAGCGUGGCAAAGAGGCUGUGGCUAGACUGUC [G7A C10A U28A C45U] | 0.01
51 | GGCAGAACUAAACACAUCGUCGCAAAGUGGCUGUGGCUAGACUGCC [G7A C10A G17U G21C] | 0.03
52 | GGCAGAACUAAACACCACGUGGCAAAGUGGCUGUGGCUAGACUACC [G7A C10A A16C G17A G44A] | 0.01
53 | GGCAGAACUCAAAACAGCGUGGCAAAGUGGCUGUGGAUAGACUGCC [G7A C13A C37A] | 0.48
54 | GGCAGAACUUAACAAAGCGUGGCAAAGUGGCUGUUGCUCGACUGCC [G7A C10U C15A G35U A39C] | 0.09
55 | GGCAGAAUGCAACACAGCGUGGCAAAGUGGCUGUGGCUCGACUGCC [G7A C8U U9G A39C] | 0.55
56 | GGCAGAACUCAAAACAGCGUCGCAAAGUGGCUGUGGCUAGACUGCC [G7A C13A G21C] | 0.21
